# The campaign covered roughly 110,000 compounds. About 230 (0.21%) showed an effect of 50% or more. The list shows a part of the results.
# Molecular target: DPAP1 (Plasmodium falciparum, UniProt Q8IIJ9)
# Experiment: primary screen, percent inhibition; read by cleavage of a fluorogenic dipeptide substrate; higher = more effect of the substance
# Set-up: species or system P. falciparum D10 trophozoite lysates; single well
# 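Note: 30 min substrate incubation versus DMSO and 10 µM JCP410 controls.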
# DPAP1, sequence (Q8IIJ9 whole entry, looked up): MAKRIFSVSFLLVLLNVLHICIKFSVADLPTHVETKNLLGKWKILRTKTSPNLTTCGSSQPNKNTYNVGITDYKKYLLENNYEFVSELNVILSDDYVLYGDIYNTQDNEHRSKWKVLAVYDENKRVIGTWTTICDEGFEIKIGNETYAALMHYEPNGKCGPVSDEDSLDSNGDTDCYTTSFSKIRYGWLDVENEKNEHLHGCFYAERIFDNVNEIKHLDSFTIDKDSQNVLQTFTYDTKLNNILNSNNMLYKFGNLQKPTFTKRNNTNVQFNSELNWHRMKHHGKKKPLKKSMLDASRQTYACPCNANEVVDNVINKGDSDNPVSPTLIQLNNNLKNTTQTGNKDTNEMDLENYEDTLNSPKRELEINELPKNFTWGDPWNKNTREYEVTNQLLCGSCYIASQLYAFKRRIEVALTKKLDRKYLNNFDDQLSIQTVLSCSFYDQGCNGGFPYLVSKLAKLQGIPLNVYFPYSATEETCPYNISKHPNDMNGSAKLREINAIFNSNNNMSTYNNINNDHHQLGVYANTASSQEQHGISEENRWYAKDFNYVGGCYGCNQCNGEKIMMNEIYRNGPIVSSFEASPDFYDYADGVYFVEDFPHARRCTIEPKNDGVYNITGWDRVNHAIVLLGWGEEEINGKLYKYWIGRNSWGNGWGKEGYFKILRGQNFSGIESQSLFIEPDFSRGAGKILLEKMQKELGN
row,SMILES,% Inhibition @ 10 uM
1,Cc1onc(-c2ccccc2)c1C(=O)Nc1cccc(OC(C)C)c1,1.64%
2,CCOc1cc2c(cc1OCC)C1C(C(=O)NCC3CCCN3CC)c3ccccc3C(=O)N1CC2 (stereo not shown),-2.19%
3,CCOc1ccc(-c2cc(OC(=O)c3ccccc3F)c3c(C)oc(C)c3c(=O)c2)cc1,-2.75%
4,O=C(c1ccco1)C(O)(c1ccccc1)c1ccco1 (stereo not shown),-3.45%
5,CS(=O)(=O)c1nc(S(=O)(=O)c2ccc(Cl)cc2)c(NCc2ccccn2)s1,1.15%
6,CCC(C)(C)/N=c1/c(-c2ccc(C(C)C)cc2)c(O)c1=O,2.24%
7,COc1ccccc1NC(=O)c1sc(N)c(C#N)c1C,2.38%
8,N#CCNC(=O)C(CC1CCCCC1)C(=O)Nc1ccccc1 (stereo not shown),-0.214%
9,Cc1c(C(=O)NCCc2ccc(Cl)cc2)sc2nc3n(c(=O)c12)CCCCC3,-1.38%
10,COc1ccc(CCNS(=O)(=O)c2ccc3oc(C(=O)O)c(C)c3c2)cc1OC,1.16%
11,CCOc1ccc(/C=C2\SC(N3CCc4ccccc4C3)=NC2=O)cc1,-0.169%
12,COc1ccc(/C=C/C(=O)c2ccc(-c3ccccc3)cc2)cc1OC,1.44%
13,COc1ccc(C2C(C(=O)CCc3ccccc3)=C(O)C(=O)N2Cc2ccccc2)cc1 (stereo not shown),-5.95%
14,COCCn1c(SCC(=O)NC2CCCCC2)nc2c(c1=O)SCC2,-5.47%
15,Cc1nn(Cc2ccccc2)c(N)c1-c1ccccc1,-2.17%
16,COc1ccccc1CNCc1cc(Br)ccc1OC,-5.26%
17,CC1CCc2nc(NS(=O)(=O)c3ccccc3)sc2C1 (stereo not shown),-7.96%
18,O=C(Cn1ncc2c1-c1ccccc1OC2)NCCN1CCOCC1,6.38%
19,Cc1nc2ccccc2c2oc(C(=O)N3CCN(C4CCCCC4)CC3)cc12,7.66%
20,CC(=O)Nc1ccc(S(=O)(=O)Nc2cccc(C(C)=O)c2)cc1,3.8%
21,CCOC(=O)c1ccc2nc(C(F)(F)F)nc(NCCCO)c2c1,0.627%
22,CCOc1ccc(C2(O)CSC3=C(C#N)C(c4ccc(O)c(OC)c4)CC(=O)N32)cc1 (stereo not shown),-1.96%

row,SMILES,% Inhibition @ 10 uM
1,Cc1nn(-c2ccccc2)c(C)c1NC(=O)c1cccs1,2.84%
2,Cc1ccc2c(c1)C(C)(c1ccccc1)CC(C)(C)N2C(=O)CN1CCOCC1 (stereo not shown),0.324%
3,COc1ccc(-c2cc(-c3ccccc3)nc(S)c2C#N)cc1,43.3%
4,COc1ccc(/C=C/C(=O)O)cc1S(=O)(=O)NC1CCS(=O)(=O)C1 (stereo not shown),0.997%
5,Cc1nn(-c2ccccn2)c(CC(C)(C)C(=O)O)c1C(=O)O,-0.834%
6,CCC(Sc1nncn2c1cc1occc12)C(=O)NCCc1ccccc1 (stereo not shown),-4.99%
7,Cc1ccc2c(c1)C1=C(C(c3ccccc3F)O2)C(c2ccccc2)n2ncnc2N1 (stereo not shown),-1.62%
8,CCCc1ccc(C(C)NC(=O)c2cc(C)on2)cc1 (stereo not shown),-2.09%
9,COc1ccccc1NS(=O)(=O)c1ccc(NC(=O)c2c(Cl)c(C)nn2C)cc1,0.983%
10,C1CN(c2nc(N3CCOCC3)nc(N3CCOCC3)n2)CCN1,2.4%
11,Cc1ccc(S(=O)(=O)c2cnc3cc(F)c(F)cc3c2O)cc1,-3.45%
12,C=CCn1c(=O)sc2cc(Br)ccc21,3.15%
13,CC(C)Oc1ccc(C2CC(=O)NC(=O)N2)cc1 (stereo not shown),-4.52%
14,CC1CCN(c2oc(-c3ccc(F)cc3)nc2S(=O)(=O)c2ccccc2)CC1,0.032%
15,Cc1ccc(-n2c(SCC(=O)Nc3nnc(C)s3)nc3c4ccccc4nc-3c2O)cc1,4.06%
16,O=S(=O)(Nc1ccc(F)cc1)c1ccc2ccccc2c1,-3.03%
17,O=C(O)CCS(=O)(=O)c1ccc2ccccc2c1,-0.736%
18,CC(=O)CSc1cccc2c(SCC(C)=O)cccc12,-5.47%
19,Cc1ccc(CNS(=O)(=O)c2ccc(-c3ccc(O)nn3)s2)o1,-1.06%
20,CC(=O)Nc1ccc(-c2ccc(OCc3ccc([N+](=O)[O-])cc3)cc2)cc1,4.17%
21,CN1CCN(Cc2ccc(C(F)(F)F)cc2)CC1,-9.49%
22,CCCC(=O)N1CCC(c2c[nH]c3ccccc23)(c2c[nH]c3ccccc23)CC1,-6.24%

row,SMILES,% Inhibition @ 10 uM
1,COCc1[nH]c2ccc([N+](=O)[O-])cc2c1-c1ccccc1,1.2%
2,COc1ccc(-c2nc3s/c(=C\c4cccc(Cl)c4)c(=O)n3n2)cc1OC,-1.18%
3,O=C(c1ccc(F)cc1)n1nc(-c2ccco2)nc1NCc1cccs1,3.31%
4,CC1=C(C(=O)OCc2ccccc2)C(c2cccc(F)c2)C2=C(O)CCCC2=N1 (stereo not shown),-5.59%
5,Cc1ccc(NC=C2C(=O)NC(=S)NC2=O)cc1,0.266%
6,Cc1ccc(NC(=O)Nc2ccc(C)c(N)c2)cc1N,7.47%
7,COCCNC(=O)Cn1c(C(=O)OC)ccc1-c1ccco1,-2.17%
8,O=C(CSc1ncnc2[nH]cnc12)Nc1ccc(Br)cc1Cl,-2.65%
9,COc1ccc(Oc2nc3c(C)cccn3c(=O)c2/C=C(\C#N)S(=O)(=O)c2ccc(C)cc2)cc1,-9.06%
10,Cc1ccc(C2=NC(=S)N(c3ccc([N+](=O)[O-])cc3)CN2)cc1,-2.59%
11,N#Cc1cc2c(nc1SCC(=O)Nc1ccc(F)cc1)CCCC2,4.75%
12,COc1ccccc1/C=C/c1nc(C#N)c(NCC2CCCO2)o1 (stereo not shown),0.895%
13,Cc1ccc(NC(=O)c2cc(C(=O)Nc3ccc(C)cc3)n(C)n2)cc1,1.76%
14,Cc1ccc(S(=O)(=O)Nc2cncc(C(=O)NC3CCCC3)c2)cc1,1.51%
15,COc1cc(/C=C2/NC(=O)N(CC(=O)Nc3cccc(C)c3)C2=O)cc(Cl)c1O,7.29%
16,COC(=O)c1sccc1NC(=S)N(C)Cc1ccccc1,4.06%
17,COc1cc2c(cc1OC)C(COc1ccccc1OC)N(C(=O)/C=C/c1ccccc1)CC2 (stereo not shown),9.62%
18,Sc1nnc(-c2cccnc2)n1C1CCCCC1,0.587%
19,CCOC(=O)N1CCN(c2c(NC3CCCC(C)C3C)c(=O)c2=O)CC1 (stereo not shown),-3.21%
20,CC1CCc2sc(NC(=O)c3ccc(Br)o3)c(C#N)c2C1 (stereo not shown),6.5%

# Reference: PMC6919601, “Identification of Plasmodium dipeptidyl aminopeptidase allosteric inhibitors by high throughput screening” (PLoS ONE, 2019)
